Data on 88 compounds can be found in paper PMC4336329 (PLoS ONE, 2015).

Among all 310,000 compounds or so, about 14,000 (4.5%) showed an effect of 50% or more. Effects have a minus sign here. The list shows a part of the results.
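Also: peak tail current of the secondary pulse compared with the same well before compound.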

The target in this test is human ether-à-go-go-related gene (hERG) potassium channel (human, UniProt Q12809). The experiment in a line: primary screen, population patch clamp on CHO cells stably expressing hERG.
Chain of human ether-à-go-go-related gene (hERG) potassium channel (Q12809 whole entry, looked up): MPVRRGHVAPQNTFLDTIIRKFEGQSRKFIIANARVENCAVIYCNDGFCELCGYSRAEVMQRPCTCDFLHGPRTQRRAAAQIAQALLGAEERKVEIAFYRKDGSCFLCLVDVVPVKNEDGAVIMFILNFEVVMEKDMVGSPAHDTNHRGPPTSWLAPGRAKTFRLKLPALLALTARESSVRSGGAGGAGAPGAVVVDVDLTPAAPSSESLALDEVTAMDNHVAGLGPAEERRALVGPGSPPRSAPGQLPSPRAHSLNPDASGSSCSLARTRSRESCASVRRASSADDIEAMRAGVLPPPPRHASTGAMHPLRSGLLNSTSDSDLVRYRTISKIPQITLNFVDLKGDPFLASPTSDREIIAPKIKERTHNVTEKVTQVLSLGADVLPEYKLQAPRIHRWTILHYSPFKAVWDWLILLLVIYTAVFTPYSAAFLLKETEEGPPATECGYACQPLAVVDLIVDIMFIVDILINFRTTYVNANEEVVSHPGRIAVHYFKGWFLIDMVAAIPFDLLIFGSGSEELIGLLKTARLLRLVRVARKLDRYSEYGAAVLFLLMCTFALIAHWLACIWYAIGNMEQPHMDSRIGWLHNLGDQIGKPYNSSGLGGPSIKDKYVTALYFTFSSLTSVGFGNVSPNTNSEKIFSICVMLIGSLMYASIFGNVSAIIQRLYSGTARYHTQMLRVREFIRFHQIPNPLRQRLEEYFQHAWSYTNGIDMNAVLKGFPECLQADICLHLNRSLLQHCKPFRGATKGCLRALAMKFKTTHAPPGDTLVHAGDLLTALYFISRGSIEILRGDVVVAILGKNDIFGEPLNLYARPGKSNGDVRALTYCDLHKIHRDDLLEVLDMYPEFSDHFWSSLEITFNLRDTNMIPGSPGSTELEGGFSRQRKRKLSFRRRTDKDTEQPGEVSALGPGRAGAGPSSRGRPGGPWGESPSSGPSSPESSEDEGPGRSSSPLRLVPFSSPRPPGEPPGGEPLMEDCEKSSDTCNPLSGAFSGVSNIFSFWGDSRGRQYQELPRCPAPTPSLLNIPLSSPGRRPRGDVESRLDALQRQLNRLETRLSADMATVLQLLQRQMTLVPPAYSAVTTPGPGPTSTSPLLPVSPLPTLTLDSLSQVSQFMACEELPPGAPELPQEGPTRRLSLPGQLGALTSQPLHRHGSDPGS
For `CCN(CC(=O)NCc1cccs1)C(=O)c1ccc(-c2cccc(C(F)(F)F)c2)o1`, the “hERG current change (%, negative = inhibition) at 10uM” value was -82.3%.
Turning to `O=C(O)CCCCNS(=O)(=O)c1ccc(Cl)c(C(F)(F)F)c1`, the “hERG current change (%, negative = inhibition) at 10uM” value is recorded as 19.9%.
Regarding `Cc1ccc(OCC(=O)NNC(=O)c2ccc3c(=O)n4c(nc3c2)CCC4)cc1`, the “hERG current change (%, negative = inhibition) at 10uM” value was -17.1%.
For the compound `Brc1ccc(-c2nnc(-c3cccnc3)o2)cc1`, the “hERG current change (%, negative = inhibition) at 10uM” value is -9.81%.
Turning to `CN(C)[C@@H]1C(=O)C(C(N)=O)=C(O)[C@@]2(O)C(=O)C3=C(O)c4c(O)cccc4[C@@](C)(O)[C@H]3[C@H](O)[C@@H]12.[Ca]`, the “hERG current change (%, negative = inhibition) at 10uM” value is -2.49%.
For the compound `CCCNS(=O)(=O)c1ccc2c(c1)CCCN2C(C)=O`, the “hERG current change (%, negative = inhibition) at 10uM” value is given as -4.81%.
For `COc1ccc(-c2nc(C#N)c(N3CCC(C(N)=O)CC3)o2)cc1OC`, the “hERG current change (%, negative = inhibition) at 10uM” value is listed as -10.3%.
On to `CCOC(=O)N1CCc2c(sc3c2C(=O)NC(c2ccccc2)N3)C1` (stereo not shown), for which the “hERG current change (%, negative = inhibition) at 10uM” value was 1.68%.
`Cc1ccnc2nc(C(=O)N3CCN(S(=O)(=O)c4ccccc4)CC3)nn12`: the “hERG current change (%, negative = inhibition) at 10uM” value was found to be 13.6%.
On to `CSc1nc(O)c(C(c2cccc([N+](=O)[O-])c2)c2c(O)nc(SC)[nH]c2=O)c(=O)[nH]1`, for which the “hERG current change (%, negative = inhibition) at 10uM” value is on record as 29.2%.
As for `COc1ccc(N=Nc2c(C)n[nH]c2C)cc1`, the “hERG current change (%, negative = inhibition) at 10uM” value turned out to be 18.1%.
The value for `C=CCSc1nc2c(sc3nc(C)cc(C)c32)c(=O)[nH]1` was 16.5%; that for `CN1CC2=Cc3ccccc3OC23Oc2ccccc2C=C3C1` was -35.4%.
For `O=C1CC(C(=O)Nc2ccccc2)N=C(N2CCCCC2)N1` (stereo not shown), the “hERG current change (%, negative = inhibition) at 10uM” value was -2.01%.
With `Cc1cccc(OCc2occc2C(=O)Nc2cccc(-n3cnnn3)c2)c1`, the “hERG current change (%, negative = inhibition) at 10uM” value stood at 9.72%.
Take `CC1CCN(C(=O)COC(=O)c2ccc3c(c2)OCO3)CC1`: the “hERG current change (%, negative = inhibition) at 10uM” value is on record as 17.9%.
In the case of `O=C(c1cc(S(=O)(=O)N2CCOCC2)ccc1F)N(CCc1ccccc1)Cc1ccccc1`, the “hERG current change (%, negative = inhibition) at 10uM” value was -4.37%.
The value for `CCC(C)(C)C(=O)Nc1cc([N+](=O)[O-])ccc1Cl` was -3.82%; that for `Cc1ccc(CN(C(=O)CNC(=O)c2cccs2)C(C(=O)NCC2CCCO2)c2ccccc2)cc1` (stereo not shown) was 11.2%.
The value for `CCOc1ccccc1CNC(=O)Cn1ccc2cc(S(=O)(=O)N3CCCCCC3)ccc21` was 10.4%; that for `CN(C(=O)Cn1nnc(-c2ccccc2)n1)C1CCS(=O)(=O)C1` (stereo not shown) was 4.5%.
On to `CCOC(=O)c1cc2c(ccn2C)n1CC(=O)N1CCN(c2cccc(C(F)(F)F)c2)CC1`, for which the “hERG current change (%, negative = inhibition) at 10uM” value is -1.37%.
For `O=C(O)CCC(NC(=O)OCc1ccccc1)C(=O)O` (stereo not shown), the “hERG current change (%, negative = inhibition) at 10uM” value is 1.35%.
As for `COc1ccc(NS(=O)(=O)c2cccc(-c3n[nH]c(=S)n3Cc3ccccc3)c2)cc1`, the “hERG current change (%, negative = inhibition) at 10uM” value is reported as -14.2%.
Regarding `C/C(=N\OC(=O)c1ccc(OC(C)C)cc1)c1ccc(C)c(C)c1`, the “hERG current change (%, negative = inhibition) at 10uM” value is on record as -5.4%.
The value for `CC(=O)NCCc1nc2cc(NC(=O)c3ccccc3)ccc2n1C` was -25.6%; that for `O=C(N/N=C/c1cc(Br)cc([N+](=O)[O-])c1O)c1ccc(NC(=O)c2ccc(F)cc2)cc1` was 16.2%.
On to `COc1cccc(N2CCN(c3ncccn3)CC2)c1`, for which the “hERG current change (%, negative = inhibition) at 10uM” value amounted to 15.3%.
In the case of `O=S(=O)(Cc1ccccc1)N1CCc2ccccc21`, the “hERG current change (%, negative = inhibition) at 10uM” value is on record as -4.64%.
As to `Cc1ccc(NC(=O)OCC(F)(F)C(F)F)cc1NC(=O)OCC(F)(F)C(F)F`, the “hERG current change (%, negative = inhibition) at 10uM” value is -22.9%.
Turning to `CCCCOc1ccc(NC(=O)Nc2nnc(C)s2)cc1`, the “hERG current change (%, negative = inhibition) at 10uM” value was found to be 18%.
Next, `O=C1C2C3C=CC(C3)C2C(=O)N1c1cccc2ccccc12` (stereo not shown): 18.7%; `Cc1[nH]c2ccccc2c1C(=O)COC(=O)Cn1cnc2ccccc21`: -25%; `O=C(CN1CCN(Cc2ccc(F)cc2)C1=O)NCc1cccs1`: -1.62%.
The value for `Cc1ccc2c(c1)N(CC(=O)NCCC1=CCCCC1)C(=O)c1cccnc1O2` was -27.8%; that for `Cc1ccc(NC(=O)CCC(C(=O)O)N2C(=O)c3ccccc3C2=O)cc1` (stereo not shown) was -2.68%.
On to `Nc1ncnc2nc(SCC(=O)Nc3ccccc3F)[nH]c12`, for which the “hERG current change (%, negative = inhibition) at 10uM” value is on record as 14.8%.
As for `CCc1ccc(N/C(=N/c2nc(C)cc(C)n2)NC(C)=O)cc1`, the “hERG current change (%, negative = inhibition) at 10uM” value is recorded as -67%.
For `Cc1cc(=O)[nH]c(SCc2nnnn2-c2ccc(Cl)cc2)n1`, the “hERG current change (%, negative = inhibition) at 10uM” value was 18.2%.
`CC(=O)Nc1ccc(Cl)cc1C1COC(=O)C1=N` (stereo not shown): the “hERG current change (%, negative = inhibition) at 10uM” value is recorded as -1.82%.
As for `Cc1cccc(Nc2nc(N)nc(CN3CCN(C)CC3)n2)c1`, the “hERG current change (%, negative = inhibition) at 10uM” value is given as -39.2%.
With `CC1CN(c2cc(=O)n(Cc3ccc(F)cc3)c(=O)[nH]2)CC(C)O1` (stereo not shown), the “hERG current change (%, negative = inhibition) at 10uM” value is recorded as -9.19%.
For `CCOC(=O)c1cccc(NC(=O)CN(C)S(=O)(=O)c2cnc[nH]2)c1`, the “hERG current change (%, negative = inhibition) at 10uM” value amounted to 9%.
Next, `COc1ccc(-c2noc(CN(C)S(=O)(=O)c3ccc(C)cc3)n2)cc1`: -14.2%; `C[C@H](NC(=O)c1ccccc1Cl)C(=O)OCC(=O)N1CCN(c2ccccc2)CC1`: -9.59%.
Consider `Cc1nnc(NC(=O)CSc2ccccc2N)s1`, for which the “hERG current change (%, negative = inhibition) at 10uM” value is 7.93%.
For the compound `CC(Nc1nc(-c2ccccc2F)nc2ccccc12)c1ccccc1` (stereo not shown), the “hERG current change (%, negative = inhibition) at 10uM” value is on record as -3.87%.
With `C=CCNC(=O)CSc1nc2sc3c(c2c(=O)n1CCCOC)CCC3`, the “hERG current change (%, negative = inhibition) at 10uM” value is given as -28.6%.
The value for `Cc1ccc(C(=O)COC(=O)CCN2C(=O)C3C4CC(C(Br)C4Br)C3C2=O)cc1` (stereo not shown) was 4.6%; that for `CCc1ccc(C(C)NC(=O)c2ncn[nH]2)cc1` (stereo not shown) was -5.51%; that for `CCOc1ccc(Cn2c(O)cc(=O)[nH]c2=O)cc1` was 18.4%.
As for `CC1CCCCC1NC(=O)CN(C)S(=O)(=O)c1cccc2nsnc12` (stereo not shown), the “hERG current change (%, negative = inhibition) at 10uM” value worked out at 14.3%.
With `CCOC(=O)CNC(=O)C12CC3CC(C1)CC(c1ccc(C)cc1)(C3)C2`, the “hERG current change (%, negative = inhibition) at 10uM” value is given as -6.27%.
For the compound `C=CCN1C(=O)C(C)(C)N(C(=O)c2cccc([N+](=O)[O-])c2)c2ccccc21`, the “hERG current change (%, negative = inhibition) at 10uM” value is -16.4%.
Consider `CC(C)c1nc(NCCN2CCOCC2)c(C#N)c2c1COC(C)(C)C2`, for which the “hERG current change (%, negative = inhibition) at 10uM” value is 5.91%.
As for `CCOC(=O)c1ccc(NC(=O)N2CC3CC(C2)c2cccc(=O)n2C3)cc1` (stereo not shown), the “hERG current change (%, negative = inhibition) at 10uM” value came to 11.5%.
As to `COc1cccc(C(=O)Nc2ccc3c(cc2=O)[C@@H](NC(C)=O)CCc2cc(OC)c(OC)c(OC)c2-3)c1`, the “hERG current change (%, negative = inhibition) at 10uM” value came out at 8.25%.
Take `O=C(c1ccccc1)c1cccc(NC(=O)C2CC2)c1`: the “hERG current change (%, negative = inhibition) at 10uM” value is recorded as 0.476%.
For `O=c1[nH]cnc2c1ncn2[C@@H]1C[C@@H](O)[C@H](CO)O1`, the “hERG current change (%, negative = inhibition) at 10uM” value is listed as 18.3%.
Regarding `Cn1nc(C(=O)NC2CCC(O)CC2)c2ccccc2c1=O` (stereo not shown), the “hERG current change (%, negative = inhibition) at 10uM” value was 11.1%.
Next, `CCOC(=O)/C(C#N)=C1/C=CN(C)C=N1`: 13.8%; `COC(=O)CCC(=O)OC1(C)C(=O)C=C2C=C(C3CC3)N(Cc3ccc(OC)cc3)C=C2C1=O` (stereo not shown): -0.151%.
Consider `CCOc1ccc(S(=O)(=O)NCCC(=O)N2CCN(c3ccccc3O)CC2)cc1`, for which the “hERG current change (%, negative = inhibition) at 10uM” value is recorded as -21.6%.
On to `CSc1ccc(CCNC(=O)CS(=O)(=O)Cc2nc(-c3ccccc3F)oc2C)cc1`, for which the “hERG current change (%, negative = inhibition) at 10uM” value came to 9.68%.
`COc1ccc(-n2nc(C(=O)NCC(=O)N3CCN(c4ccccc4OC)CC3)c3ccccc3c2=O)c(OC)c1`: the “hERG current change (%, negative = inhibition) at 10uM” value is -18.4%.
For the compound `O=C(COc1ccccc1)Nc1nnc(-c2ccco2)o1`, the “hERG current change (%, negative = inhibition) at 10uM” value stood at 22.2%.
With `COc1ccc(C(C(=O)NCC2CCCO2)N(Cc2ccccc2)C(=O)CNC(=O)c2ccco2)cc1OC` (stereo not shown), the “hERG current change (%, negative = inhibition) at 10uM” value was found to be 13.4%.
The value for `COc1c(N)c2ccccc2[nH]c1=O` was -1.19%.
In the case of `CC(C)(C)c1cccc(C2(O)C(=O)c3ccccc3C2=O)c1O`, the “hERG current change (%, negative = inhibition) at 10uM” value is listed as 13%.
The value for `CCOC(=O)N1CCN(C(=O)c2ccc3c(=O)n(CCc4ccccc4)c(=O)[nH]c3c2)CC1` was 9.62%; that for `Cc1ccc(CNc2c(C=O)c(=O)[nH]c3ccccc23)cc1` was 14.9%; that for `COc1ccc(CNC(=O)CN(C(=O)c2snc(C(N)=O)c2N)c2ccc(OC)c(OC)c2)cc1` was -3.19%.
`CCC(c1nnnn1CC1CCCO1)N(CCCO)Cc1cc2cccc(C)c2[nH]c1=O` (stereo not shown): the “hERG current change (%, negative = inhibition) at 10uM” value is on record as -4.22%.
Take `CCOc1ccccc1CN1CCNC(=O)C1CC(=O)N(C)Cc1cnccn1` (stereo not shown): the “hERG current change (%, negative = inhibition) at 10uM” value is 19.2%.
`COc1ccc(NCC(=O)N/N=C/C=C\c2ccccc2)cc1`: the “hERG current change (%, negative = inhibition) at 10uM” value was -5.53%.
On to `COc1ccc(C(=O)C2CCCN(C(=O)c3ccnn3C)C2)cc1OC` (stereo not shown), for which the “hERG current change (%, negative = inhibition) at 10uM” value worked out at 12.2%.
Take `O=C(/C=C/c1ccc(Cl)cc1)N1CCOCC1`: the “hERG current change (%, negative = inhibition) at 10uM” value worked out at 9.65%.
On to `Cc1cc(C(=O)N/N=C/c2c3ccccc3cc3ccccc23)n[nH]1`, for which the “hERG current change (%, negative = inhibition) at 10uM” value was 9.44%.
The value for `Cc1ccc2nc(Br)c3c(c2c1)OC(CBr)C3` (stereo not shown) was -33.6%; that for `Cc1cc(C)c(S(=O)(=O)NCC2CCC(C(=O)NCCCN3CCC(C)CC3)CC2)c(C)c1` (stereo not shown) was -77.2%.
For the compound `Nc1nnc(SCC(=O)OCC(=O)Nc2ccc(Br)cc2)s1`, the “hERG current change (%, negative = inhibition) at 10uM” value is 5.55%.
The value for `CCOC(=O)CSc1nc(C)cc(C)n1` was 7.29%.
`COc1ccc(-c2noc3c2-c2nc(-c4ccccc4C)sc2CC3)cc1`: the “hERG current change (%, negative = inhibition) at 10uM” value is recorded as 16.7%.
In the case of `CCCOC(=O)c1ccc(Cl)c(NC(=O)c2cccnc2)c1`, the “hERG current change (%, negative = inhibition) at 10uM” value is -42.3%.
The value for `COc1ccc(C2CC(=O)c3ccccc3O2)cc1` (stereo not shown) was -0.451%; that for `Cc1snc(S(=O)(=O)Cc2c(Cl)cccc2Cl)c1C#N` was -11.5%.
The value for `COc1ccc(S(=O)(=O)Nc2cccc(F)c2C)cc1C(=O)N1CCOCC1` was 6.33%.
As for `O=C(c1nn(Cc2ccccc2)c(=O)c2ccccc12)N1CCN(c2ccccn2)CC1`, the “hERG current change (%, negative = inhibition) at 10uM” value is -66.3%.
